For seven sequences, binding signal results are on record in article PMC4081100.

Only a part is listed here, and it is no random draw. For some assays here: At the low end of the ranking, values are background and their order means little. The list shows a part of the results. For some assays here: The exact form of the protein is not confirmed.

Test in all cases: universal protein binding microarray (PBM)
Conditions in all cases: transcription factors of Arabidopsis thaliana; high values mean tight binding; most listed sequences are background and not binding sites; double strand, one strand shown

The target of one experiment is T1, GST-ANAC092(1-176) (UniProt Q9FKA0).
T1 sequence: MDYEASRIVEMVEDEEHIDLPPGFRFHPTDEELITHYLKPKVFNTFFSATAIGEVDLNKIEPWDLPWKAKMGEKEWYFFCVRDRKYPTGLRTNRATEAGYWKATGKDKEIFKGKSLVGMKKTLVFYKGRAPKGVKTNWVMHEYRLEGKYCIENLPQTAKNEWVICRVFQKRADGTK

A further experiment deals with GST-NTL6(1-168) (UniProt Q9SCK6).
Another experiment deals with T2, GST-ANAC019 NAC domain (UniProt Q9C932).
T2 sequence: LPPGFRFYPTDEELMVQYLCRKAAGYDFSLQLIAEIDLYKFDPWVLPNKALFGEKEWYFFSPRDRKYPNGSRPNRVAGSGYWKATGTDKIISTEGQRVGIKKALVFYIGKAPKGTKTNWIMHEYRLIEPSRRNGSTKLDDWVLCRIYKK

For the next experiment, the target named is T3, GST-ANAC055(1-171) (UniProt Q9LDY8).
T3 sequence: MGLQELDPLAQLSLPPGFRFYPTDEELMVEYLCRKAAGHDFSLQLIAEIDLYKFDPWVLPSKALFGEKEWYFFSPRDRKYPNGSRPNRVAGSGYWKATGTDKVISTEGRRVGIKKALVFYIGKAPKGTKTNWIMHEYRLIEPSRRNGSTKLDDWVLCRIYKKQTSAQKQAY

In a further experiment the target is T4, GST-ATAF1 NAC domain (UniProt Q39013).
T4 sequence: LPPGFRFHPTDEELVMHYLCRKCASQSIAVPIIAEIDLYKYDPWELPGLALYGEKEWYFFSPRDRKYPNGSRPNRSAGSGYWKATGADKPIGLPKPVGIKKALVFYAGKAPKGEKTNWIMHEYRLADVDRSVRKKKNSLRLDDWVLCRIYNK

Experiment [1] deals with T5, GST-ANAC092(1-285) full length (UniProt Q9FKA0).
T5 sequence: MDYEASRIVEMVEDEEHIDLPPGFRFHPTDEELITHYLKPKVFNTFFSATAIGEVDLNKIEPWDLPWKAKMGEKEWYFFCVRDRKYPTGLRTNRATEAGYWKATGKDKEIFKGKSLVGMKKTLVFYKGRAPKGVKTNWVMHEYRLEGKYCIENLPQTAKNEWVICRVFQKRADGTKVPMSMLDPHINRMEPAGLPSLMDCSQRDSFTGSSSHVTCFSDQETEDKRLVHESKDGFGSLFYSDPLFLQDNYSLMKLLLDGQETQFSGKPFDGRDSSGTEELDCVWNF

The target of a further experiment is T6, GST-NST2(1-184) (UniProt Q9M274).
T6 sequence: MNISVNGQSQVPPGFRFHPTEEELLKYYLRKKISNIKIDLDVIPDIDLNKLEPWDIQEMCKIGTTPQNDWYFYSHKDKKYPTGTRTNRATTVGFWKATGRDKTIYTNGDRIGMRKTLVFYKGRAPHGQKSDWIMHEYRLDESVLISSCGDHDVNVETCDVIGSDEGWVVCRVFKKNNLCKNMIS

Another experiment addresses T7, GST-NTL8 NAC domain (UniProt Q9XIN7).
T7 sequence: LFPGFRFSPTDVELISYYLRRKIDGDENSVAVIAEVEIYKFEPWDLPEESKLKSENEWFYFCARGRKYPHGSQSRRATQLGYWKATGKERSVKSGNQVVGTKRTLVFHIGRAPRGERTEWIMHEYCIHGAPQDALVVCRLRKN

The next experiment concerns the target T8, GST-VND7 NAC domain (UniProt Q9C8W9).
T8 sequence: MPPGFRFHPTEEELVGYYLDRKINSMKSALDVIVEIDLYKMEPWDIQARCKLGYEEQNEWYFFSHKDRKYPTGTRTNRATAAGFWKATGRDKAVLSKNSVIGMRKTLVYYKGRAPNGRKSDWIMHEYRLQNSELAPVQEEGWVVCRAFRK

Experiment [2] addresses T9, GST-VOZ2 (Arabidopsis thaliana) (UniProt Q9SLB9).
T9 sequence: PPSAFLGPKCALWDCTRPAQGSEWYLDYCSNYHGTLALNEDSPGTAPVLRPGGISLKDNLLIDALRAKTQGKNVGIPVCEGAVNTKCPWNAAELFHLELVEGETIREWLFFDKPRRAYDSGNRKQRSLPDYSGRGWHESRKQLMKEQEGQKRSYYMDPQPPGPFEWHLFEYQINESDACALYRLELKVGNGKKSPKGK

The next experiment concerns the target GST-WRKY1(266-371) (UniProt Q9SI37).
The next experiment addresses T10, GST-NAP(1-166) (UniProt O49255).
T10 sequence: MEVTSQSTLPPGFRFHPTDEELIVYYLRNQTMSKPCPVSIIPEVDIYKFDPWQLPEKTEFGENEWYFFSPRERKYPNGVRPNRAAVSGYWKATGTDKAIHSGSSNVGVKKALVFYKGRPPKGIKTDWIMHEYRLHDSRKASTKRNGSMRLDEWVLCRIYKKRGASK

For the sequence GCTAAGTA, the binding signal is 0.00873 E-score with GST-ANAC092(1-176); 0.429 E-score with GST-NTL6(1-168); -0.0121 E-score with GST-ANAC019 NAC domain; 0.0331 E-score in the experiment with GST-ANAC055(1-171); 0.0108 E-score in the experiment with GST-ATAF1 NAC domain; 0.0369 E-score in [1]. In addition, the binding signal with GST-NST2(1-184) was 0.00663 E-score; with GST-NTL8 NAC domain, -0.0278 E-score; with GST-VND7 NAC domain it was 0.0222 E-score; in [2] it was -0.042 E-score; with GST-WRKY1(266-371) it was -0.0209 E-score.
For the sequence TAAGCAAA, the binding signal worked out at 0.201 E-score in the experiment with GST-ANAC092(1-176); 0.113 E-score in the experiment with GST-ANAC019 NAC domain; 0.308 E-score in [1]; 0.241 E-score with GST-NTL8 NAC domain; 0.252 E-score with GST-VND7 NAC domain; 0.144 E-score in [2]. In the experiment with GST-WRKY1(266-371), this sequence came in with a binding signal of 0.0104 E-score.
On to ACGGCACT, for which the binding signal is 0.331 E-score with GST-ANAC092(1-176); -0.0559 E-score in the experiment with GST-NTL6(1-168); 0.453 E-score with GST-VND7 NAC domain; -0.0428 E-score in [2]; -0.0412 E-score with GST-WRKY1(266-371).
As to TCCGTCAA, the binding signal in the experiment with GST-ANAC092(1-176) is -0.0261 E-score; with GST-NTL6(1-168), -0.0881 E-score; with GST-ANAC019 NAC domain, 0.0961 E-score; with GST-ANAC055(1-171) it was -0.0622 E-score; with GST-ATAF1 NAC domain, 0.00487 E-score; in [1] it was 0.012 E-score. Moreover, the binding signal in the experiment with GST-NAP(1-166) was -0.071 E-score; in the experiment with GST-NST2(1-184) it was -0.0902 E-score; with GST-NTL8 NAC domain, -0.00797 E-score; with GST-VND7 NAC domain, 0.0414 E-score; in experiment [2], -0.0509 E-score; with GST-WRKY1(266-371) it was 0.412 E-score.
Consider CTTACTTA, for which the binding signal worked out at 0.205 E-score with GST-ANAC092(1-176); 0.164 E-score in the experiment with GST-ANAC019 NAC domain; 0.208 E-score with GST-NTL8 NAC domain; 0.106 E-score with GST-VND7 NAC domain; 0.162 E-score in experiment [2]; 0.235 E-score with GST-WRKY1(266-371).
Regarding ATTTCTTA, the binding signal with GST-ANAC092(1-176) is 0.0438 E-score; in the experiment with GST-NTL6(1-168), 0.409 E-score; with GST-ANAC019 NAC domain it was 0.00248 E-score; with GST-ATAF1 NAC domain it was 0.19 E-score; with GST-NAP(1-166) it was -0.0309 E-score; in the experiment with GST-NST2(1-184), 0.126 E-score. Also, the binding signal with GST-NTL8 NAC domain is -0.0301 E-score; with GST-VND7 NAC domain, 0.148 E-score; in [2], 0.121 E-score; with GST-WRKY1(266-371) it was 0.00519 E-score.
In the case of CAAGTCAG, the binding signal is -0.0334 E-score with GST-ANAC092(1-176); 0.00352 E-score in the experiment with GST-NTL6(1-168); -0.154 E-score with GST-ANAC019 NAC domain; -0.0805 E-score with GST-ANAC055(1-171); -0.0845 E-score with GST-ATAF1 NAC domain; 0.0212 E-score with GST-NAP(1-166). Moreover, the binding signal is -0.0841 E-score in the experiment with GST-NST2(1-184); -0.0668 E-score in the experiment with GST-NTL8 NAC domain; -0.0285 E-score in the experiment with GST-VND7 NAC domain; 0.0399 E-score in [2]; 0.417 E-score in the experiment with GST-WRKY1(266-371).
